Results from article PMC10668032.
This is one part of the list. At the low end of the ranking the order means little.

What follows are sequences tested against SIX1 homeodomain (reference allele) (UniProt Q15475) (assay: universal protein binding microarray). Details: Universal all-10-mer PBM (8x60K, AMADID 030236), 300 nM GST-tagged protein, Alexa Fluor 488 anti-GST; buffer, salt, pH and temperature not stated; high values mean tight binding; most listed sequences are background and not binding sites; double strand, one strand shown.

Sequence | binding signal [E-score]
TCGGATCA | 0.438
AGCCTCGA | -0.168
AGCGTTCG | -0.294
CATCACAC | 0.1
CGCGTCCG | -0.0858
CAAATCCG | 0.0625
GCACATAA | -0.0061
CAGAAATA | 0.0551
ATAAGCCA | 0.0443
CATGTGCA | -0.154
GTGGCCTA | -0.0647
ATTGCCAA | -0.0122
GGAGCCCA | -0.208
TCACTGAA | -0.131
AGTTACAG | -0.138
GGTTTGAA | -0.0148
CGGCTAGA | -0.00509
TACATTGA | -0.00202
CGGTTTCC | 0.052
ACGCACGG | -0.0589
AGTGAACG | -0.15
GAGCAACC | -0.284
CCTTATCG | -0.0678
CGGTGTCA | 0.471
CGCGAGCA | -0.0385

Sequence | binding signal [E-score]
AACATATG | -0.00428
CGTAAGAG | -0.13
AAGGGATG | -0.00953
CTGCAAAC | -0.0982
ACCCTCAG | 0.0125
ACAAGGAA | -0.183
TATCCCGA | 0.315
ACGTAGCT | -0.0152
CGAGGGAG | -0.146
AGTTCAGA | -0.0763
GAAGGGAA | -0.168
CACCATTC | 0.107
AGCGGCAA | -0.151
AGAAGCAG | -0.0573
GAAGTCCA | -0.169
GAGACAAA | -0.0705
TCAATCGA | -0.0537
GTAAAATA | -0.103
AAGAAGTA | -0.0535
TATGGAGA | 0.0397
GCAACCTA | -0.0971
AGTGCTAG | 0.0542
GGCTAAAA | -0.239
ATCAAGGA | 0.174
CGAACCCC | 0.0469

Sequence | binding signal [E-score]
ATTGCCAC | -0.206
ATTGGAGA | 0.0346
GATCAATC | 0.366
GAACATTA | -0.212
ATACGTTA | 0.164
AAGTGCGA | -0.0732
CAAATCAG | -0.171
TCAAGCAA | -0.214
ATCGCGGA | 0.232
ACACGAGG | 0.0992
CCTCATGA | 0.024
AGTGAGCA | -0.0864
ATAGTATA | 0.29
AAAAGCAG | -0.317
ACGACACC | 0.432
CCCTTTAC | -0.00779
AAATCTCC | -0.113
CAGCGGAG | 0.0225
AGGACGTC | -0.0603
AACTGCCT | -0.0645
GTTGAGGA | -0.0318
TAAGGGAA | -0.249
CGGGAGGC | -0.196
TATGGGCA | 0.123
CCTGAACG | 0.122

Sequence | binding signal [E-score]
CTAGTGTC | 0.0995
AACCACCG | -0.059
CTGAAGGC | -0.311
ATATCCTC | 0.426
ATCGACCG | -0.0695
AGCAGGAG | 0.0752
GATTGTGA | 0.0817
GTCGGTTA | -0.127
ACGTGTAG | -0.125
ACTAACCG | -0.119
GTGGCAAC | -0.189
ACGACGTG | -0.232
TAGCTGAA | -0.115
CAAGATAC | 0.349
ACTGACAA | -0.133
CAGATCTA | 0.21
CACTACAA | -0.0395
ACACGGCG | -0.0684
TCCCTTAA | -0.00882
CCCCAACA | 0.0319
CACTCGAA | -0.0663
CGTCTACC | 0.0937
CCGATAGC | 0.329
AGCCACTG | 0.00938
GAGGTTGA | -0.142

Sequence | binding signal [E-score]
CGGACAAC | -0.0255
TACCGGTA | 0.206
AAGAATGC | -0.155
CAACCCAC | -0.0843
CTTTTTAA | -0.202
GGAGTCCA | -0.248
TCAGCACA | -0.11
CTAACGTA | 0.0315
ATAGTCGA | 0.0455
ACCCAGGA | 0.15
AAAAGGGG | -0.0983
CACCGGAC | 0.0612
ATCGAGTA | 0.226
ACGTTTAC | -0.213
GACTTACC | 0.0442
TAGTACAA | -0.033
GTGCCCAC | -0.0546
ACTTGACT | -0.229
AAATGCGT | -0.0206
GATCACCC | 0.407
AAGATTTC | -0.198
CACACCCG | 0.0478
CAGTTAAG | -0.0403
CGTACAAA | -0.151
CTGTGGCA | -0.295

Sequence | binding signal [E-score]
AACGGGTA | 0.159
CCACTTCG | -0.0848
ACGTCCAG | -0.197
GCAATTGC | -0.0561
AGCAATCC | 0.081
AGGTCTAC | -0.0295
CGTCATCA | 0.114
AGAATGCG | -0.114
CAAGGAGA | -0.0267
GGGCTATA | 0.2
AATTAGGG | -0.0389
AGGGCAAG | -0.00817
AACATAGT | -0.104
GATGCCAC | -0.185
GTCTAGAC | 0.0275
AGCCGAGA | 0.0266
ACCGTCGC | -0.0519
ATTAGACG | 0.132
CTACGCTC | -0.0764
GGGTGGAC | -0.211
GCCGGCGA | 0.0376
CATTAAAG | -0.0889
AATCCCGG | 0.0651
ACTGGTTA | 0.0425
GGACGCGA | 0.102

Sequence | binding signal [E-score]
ACAGGGAT | 0.297
AGGGCATC | -0.0524
AGTGGATG | -0.14
TAAGAAGA | 0.0544
AGTGGACA | 0.0503
CGCGCTAC | -0.195
ACTTAAAA | -0.226
AGCTGAAA | -0.224
ATAAGGAC | -0.023
AAGTTTTC | -0.253
CCTTATCC | 0.137
ATCCGGTC | 0.318
GCCGGCCA | -0.191
AATACAAA | 0.0403
AACCTCTG | -0.068
GAGTACTA | 0.0315
ATCTATTG | 0.175
CCGCATAC | 0.168
CAGCGCCA | -0.202
AAGGCAGA | -0.116
ACCTGAGG | -0.123
ACTAACGG | -0.102
